Reference: paper PMC10726135
The other results are listed elsewhere or left out. At the low end of the ranking, values are background and their order means little. Measured with an extract: partners may take part in the binding.

Target: T1, HNF4alpha2 (COS-7 nuclear extract) (UniProt P41235)
T1 sequence: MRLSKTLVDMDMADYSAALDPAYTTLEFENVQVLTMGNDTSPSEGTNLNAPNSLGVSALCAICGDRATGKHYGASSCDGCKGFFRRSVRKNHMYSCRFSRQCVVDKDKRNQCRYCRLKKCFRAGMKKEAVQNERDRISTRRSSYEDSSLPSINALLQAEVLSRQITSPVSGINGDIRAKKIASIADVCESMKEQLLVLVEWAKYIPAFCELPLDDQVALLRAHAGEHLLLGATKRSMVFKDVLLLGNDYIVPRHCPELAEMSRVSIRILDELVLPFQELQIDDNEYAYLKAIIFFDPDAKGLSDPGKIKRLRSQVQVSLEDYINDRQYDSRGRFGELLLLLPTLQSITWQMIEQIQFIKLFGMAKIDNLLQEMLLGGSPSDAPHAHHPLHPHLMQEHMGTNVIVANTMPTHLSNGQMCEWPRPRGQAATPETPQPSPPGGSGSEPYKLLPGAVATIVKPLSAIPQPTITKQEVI
Assay: protein-binding microarray
Details: COS-7 nuclear extract on double-stranded Agilent 4x180k PBM; binding buffer, salt, pH and temperature not given; high values mean tight binding; double strand, one strand shown; sequences stand for … in …GCCTAGGGAGATTAGAGTATCGGTCGA

Row | Sequence | binding signal (log2 normalized intensity)
1 | GTACAAAGTACAGAGATGGCACAGAGGAGG | -0.738
2 | GCATTTAGAAATAGTTGACTTTTCTAACAA | -1.1
3 | AAATCTTCCCTCCTGTGAACTCGCGCCCCA | 1.66
4 | CAGAACAAAGTCCAGTAAGGACAGTTCCAG | 2.29
5 | TAAAGCTAACCAGCTCTATCAGTCTGGGTC | -1.13
6 | GTAACCTTTGCCCCCCAAGTTGAAGCCATC | 5.16
7 | GAGTGCCTCCATTTCACAAATGAGGGGACA | -0.526
8 | TAAAAGGATCATGGAATTTAATTAGCTTCT | -1.14
9 | CTGATGTGTTCGCCCCTAGGACACGCAGTT | 0.984
10 | AAGGCATGCTTGGCATCCCTGTGGTATTTG | 0.27
11 | AAGCTGAAAACAAATATTTGCCTAGGATTC | -0.803
12 | GCAGAATCAAAGGTCAAAATATCTGATCGA | 3.32
13 | TCACCTAACCACATTCTTTCTGCATCGCAG | -1.13
14 | GTAAGTTCAAGAAGACCTTTGCTCCACGTT | 4.36
15 | TGAAGATACTGGATAACCTTCCAGACAGAG | -1.01
16 | GGACGTGGAATAGATCAGCTTTCAACACTC | -1.01
17 | CCTCCCTCCCCCTTTCTCCGCTAAGTGGCT | 2.62
18 | CCTCTGCTGCGATCACCCAGGTCCAAGTCA | 1.09
19 | TTGGTTTATGTTCACCTCAGCACTGAGATA | 0.424
20 | GGTTCACATTTTTGTCATCTTCACTTTTGT | 1.61
21 | ATGATGGCCAGTTCAGCGCGTCTTAGCACT | -1.09
22 | TACAGTAATTAGACAACATCGAAGACTTCA | -1.12
23 | AGGAAGTCGCTTGCCAGTATGCCACTGGTT | -1.1
24 | AGAAGTATGACAACAAAGCATTATCTACAC | -1.11
25 | TCTGATAAGGGTGTTTGTCCTTTGTTGCAA | 1.92

Row | Sequence | binding signal (log2 normalized intensity)
26 | AAATTTCCGTGTCGAAACTACAAACGGATA | -1.16
27 | TGCCCTTGACTTTTTGTGGGGGCAGATGTT | 1.86
28 | AAGAAAGTTGAGGTGAATACACAGCTAGCA | -1.02
29 | CTGGCTGCCCTGGGGTGACAGCTTTCTCCT | -0.776
30 | TTGATAACCTACAACCTTCTGAGATGGAGC | -1.08
31 | TTATGAAGGGGGGTGGGGAGGCAGGTGGCT | -1.09
32 | GCATTTTTTGTAGATGCCTGCTTTCCACTC | 0.968
33 | ACCACTTTGAAATAGTGACCTCTGCTGGCC | 2.65
34 | ATCGCCACTGATTGAGGTTCACTCTATGTT | 0.436
35 | CGCCGCTTCCCCACCCCCTCTCCTCCCTCG | 5.4
36 | TTTTTTTTCTTAATTGCCCTTTGCCCTTTG | 8.54
37 | TTAACATTGCCGACCTCATGAGTAGAGAGC | 0.0701
38 | GGTATGAGGCCAGTTTTCCTAAGGGGCTTT | -1.08
39 | GAGATCTGAATGGAATGAAGATACTGGATA | -1.08
40 | CTATGACCTTTCACCTTTTAGCTTGGCATG | 4.41
41 | TGCTCCACCCTTCTATCCCCTTATCTAAAT | 2.45
42 | GAGGTGACGGCTAAGAGAAATCCACACAGC | -1.2
43 | AGGTCATTCATGTGCAGGTTGGAATATGTG | 2.33
44 | CGCTGGGGAAGAGTGTGACTGTGGTACTCC | 0.366
45 | AGTCTGCCTCTATGTGATCAGATGTGGACA | 1.96
46 | GACCAAGCAGCTGTTTGACCAAAGCTACTC | -1.09
47 | TCCACACAGCACTGACCTTTGAGAGTCAAC | 3.27
48 | CAATAGCAAAACCTGATGTTTGGACAGTGT | 1.84
49 | TTCTTGAGGCATTTATTACAGAGAGGGGGA | -1.15
50 | CAGCTTTCTTTTCCAACCATTGACACTCCT | 1.5

Row | Sequence | binding signal (log2 normalized intensity)
51 | AAGCAAGACAATGCACTCATAACTAGGGTT | -0.968
52 | CCCGGACCCTGACTCTGCAGCCGAACCGGC | -1.13
53 | GCTGGAATTTGAACCCAAGCAATCTGGCTG | 2.14
54 | TAGAAAACAAGTTAGACAGTGCCTATGTTG | -0.264
55 | TATATGAGGAAGGGTGTGTAAAACAGGTGA | 1.24
56 | CTGGATGGTGTTTGATCTGATGTACCCAGC | 2.34
57 | CAATTGCCCTACAGCTCCTGAGTCCACATG | 0.851
58 | ACCGTAAATGCATTATTGCACTGTGCTTTG | 1.49
59 | CAGCTGTCGTGTGAATAGCACTGACCAGCT | -1.21
60 | TTACGGGGTGGTTTATCTGCCTGTGGATAG | 1.37
61 | AATACTGTGCAAATCCCCGCCTTTGACACA | 2.22
62 | GGAAGGATAAGAGCAAGAAACAGCAAATGC | -1.18
63 | TTTCCCCGTCCCAAGCTGAGGTCTGGTGTC | 2.59
64 | ATAGGAAAAGGGAGTTTTCTGCTCTCAACT | -1.17
65 | GGCCTCTTCCCCAAACTAGGAGAGTGGACT | 2.56
66 | CAGGGTCAGAGGTCGCGAGGGAGAGCCCTA | 2.5
67 | AGGACTTATCCTTGGGACATTCTCACATTA | -0.165
68 | TTTTCCCTTCTGTTAGAATGTATTGAGAAG | 1.36
69 | AACCAAGGGTACACACCGTTAGCCAATATT | -1.15
70 | GACCGTCCCTGGGTACAACTTTATCTAAGG | 0.0384
71 | GGAATGCGGGCTCCACCACTTGCTCACGAA | -0.969
72 | CTTAGACCCCTGAATAGGTCTTGGAATGTG | 1.75
73 | CCAGGGCATTGCCGTTCAGGGCCACGGGAA | -0.917
74 | ACAAGGAAAACAAGGTACAGAGAGTTTAAG | -1.12
75 | GGGTACACATGGCCGTAAAGATAAGAACGC | -1.19

Row | Sequence | binding signal (log2 normalized intensity)
76 | TCCTTTTCATTCTTTAAGGACCACATCAAA | 1.75
77 | GGCTGATTTCTCAGGAAGTGCTTGTTCCCT | 0.316
78 | ACACATCTTCCATCGGACTTTGATCTGCCA | 6.22
79 | GCCTGGTCTGCACTCCAGGAAAGACGAGTG | 0.842
80 | GTCCTTCCCAAGTCCTGCATGTGTTCACAC | 1.37
81 | AGATGGTCAAAGGTTGATGGTATGTTTCAG | 3.07
82 | AACATGTAATCATTTGGGACAAAGTTCATC | 4.11
83 | CGGCTGGGGATGAAGGGGGCGGGGGCGAAA | -1.04
84 | TTAACTGAACCTAGATTCCAGGAAGAAAGA | -1.04
85 | AGAAGCTGTTGGAAAGGGCACTGATAACCT | -1.09
86 | CCTCGGCCGGCCCGGCAGCCCTGCTCCCCG | -1.09
87 | ATTGTGTCATTGGTATCCACAGAGTTCATA | 1.71
88 | CTGGGAGATGAGCTCTGAACTAACAATTCT | -1.07
89 | GGAACAACTTCGGGAATCTGACCTTTGGGA | 4.89
90 | CCTGCGTCTTATATAAGCTATTACTTGATT | 0.592
91 | GTGGCAGCATTGTGCTGAAAAGACTTCACA | -1.14
92 | TGGGGAAGTCTCTAGATGGGGTTGAGCAGA | -1.12
93 | TTTTCCCGGTTTGTTCCATGCCACAGAATC | 0.655
94 | CTGAGGTTAAAGTCCACATTCTTTAGCATA | 5.15
95 | TCTCAGGGAGTGCAAACTTCTTTGAAGAAG | -1.16
96 | CACCCCCCAAGTAGAGAGCAATTATGCACC | 3.29
97 | GGGACCTTGATGGCATTCTTGAGCTACCGC | -1.16
98 | TTCTCTGTGACCTTTGGAAGGTGGGGGAGG | 4.13
99 | AGATATATCACCTGCCAGCTGTTATGAGTC | 0.286
100 | CCCTATCCCCAGATTCCAGGGGAGGGTAAG | -1.18

Row | Sequence | binding signal (log2 normalized intensity)
101 | CATCTAAGGACAAACTTTGTCACTGCAAAT | 0.452
102 | CTTGGACTTTAACCTTTAGATTACTAGGAA | 6.18
103 | GGGGCATAGCCCATGCAAATACTCGGTGAC | -0.814
104 | AGTTAGTTTACTTAGGCCTCCCAGAACGTG | 1.24
105 | GCTATCCCGGCCAACGGTCGGAAGGGAGGT | -1.19
106 | GTATGCTATTAGTGGTTAAGTTTTCGAGGA | 1.17
107 | TCACCACATCTCCCACTGTGGACTCTGAGC | 4.82
108 | TCCAAGGAACCTCACGCGCTCCCTGTTTAG | -1.23
109 | TGTAGACATTGGAATGCGGGCTCCACCACT | -1.19
110 | CCATATCACATTTTAAGGTCTGGCATTCTT | 1.37
111 | CTGGATCCGTTAACAGCGGCATTCCTGTCA | -1.17
112 | GTCTTAGGATCTGTGTTATGCTTGCAGGTG | 1.5
113 | TTCCCTGAGTTTCCATTAACTGAACCTAGA | 0.529
114 | TACAAACAGCCCTGACATTCTTGAGCTGCT | -1.15
115 | GTCACCCTCCCCGCCACCCCCCAGAGGGCC | 6.08
116 | TGAGCTTGAGTCCATCCCATCTTCCAGAAA | 0.309
117 | TCCCCCATGAAATTGAGATAAACATGAAAC | 2.04
118 | ACAGTAGGGAAAGTGGGGGGAAAGAATAAC | -1.2
119 | GCAAACAGCACTCTCTGATTACACAGGCCT | -1.37
120 | AGCTACTAGCAAATCTGCCCAACCTTTGCC | 0.949
121 | CTGGGAAGAGAAGGTGAACTTGCTCAACCT | -1.14
122 | CTACCGTACCTAGGACAAAGCAAACACTCA | -1.2
123 | CCAAGTGAGTAAGGAAAGCCACTTCCTGGC | -1.18
124 | CTGGTGCAGTCCAAGAGGCCCAGGTAAACA | -1.21
125 | GCTAACAGTAAAACTGAGATCTAAGCGATA | -1.26

Row | Sequence | binding signal (log2 normalized intensity)
126 | GATGTTTGCCCATGATCATATGGACTATGT | 3.41
127 | AGCTCCACAGCTGGACTTTGGCTGCAAAAT | 4.01
128 | ATTGTCAGGCCAGTAGGTCAGTGTCCCTCT | 1.24
129 | GTAACCTGCAAAGAGCAAACTCCAGTTGTA | -1.03
130 | AGTGAGACAGACATGCGACATGAGGAGCCT | -1.11
131 | TTCCAGGGTTACCGGCAGAGAGAAGCCACT | -1.1
132 | CTGCCAAATATTGGGCAATGCTAGGTCTTT | -0.788
133 | GCATGAGGCCCCTTGCAATGCTGGAGGGAC | -1.25
134 | GGTGGACAAGACTGGTTTTTCAGATCCCTC | -1.07
135 | AAGTCTTTCCCTGCCAGTTCCATGTAATCC | 0.625
136 | CCGCTGGCGCCATCCAAAGGCCCGAGGGCC | -1.11
137 | GCCCCATGCTGATAAGGGCCACAGATGGCC | -1.21
138 | TCAAAGGGACAGCACTGGCATGCAGCAGGG | -1.06
139 | AGTGATAAGGAACCTAGGAAATCAAAAACC | -1.24
140 | ACCTTTGGGCTCTGACCCGAAGGGTAGGAG | 0.761
141 | AAATCAGCCAGTGATTCAACTCTGACCCAT | 3
142 | TGAAAGCCAAGGCAGATATGAAAGAGCCAT | -1.25
143 | TGTTCCCGTCCGTGCGGTCGGGCGCGCGGG | -1.01
144 | GTAAATGATTCTCTTTGGAAATTGATTGGG | 0.503
145 | TGATAGCATCCCAGTAGAAAAAAAAATGGG | -1.08
